# Test results: publication PMC4336329 (PLoS ONE, 2015)
# Screen size: about 310,000 compounds; about 2,200 (0.71%) showed an effect of 50% or more. The effect is printed as a negative number. Some of the results follow.
# Biological target: human ether-à-go-go-related gene (hERG) potassium channel (human, UniProt Q12809)
# Experiment: primary screen, population patch clamp on CHO cells stably expressing hERG
# human ether-à-go-go-related gene (hERG) potassium channel, sequence (Q12809 whole entry, looked up): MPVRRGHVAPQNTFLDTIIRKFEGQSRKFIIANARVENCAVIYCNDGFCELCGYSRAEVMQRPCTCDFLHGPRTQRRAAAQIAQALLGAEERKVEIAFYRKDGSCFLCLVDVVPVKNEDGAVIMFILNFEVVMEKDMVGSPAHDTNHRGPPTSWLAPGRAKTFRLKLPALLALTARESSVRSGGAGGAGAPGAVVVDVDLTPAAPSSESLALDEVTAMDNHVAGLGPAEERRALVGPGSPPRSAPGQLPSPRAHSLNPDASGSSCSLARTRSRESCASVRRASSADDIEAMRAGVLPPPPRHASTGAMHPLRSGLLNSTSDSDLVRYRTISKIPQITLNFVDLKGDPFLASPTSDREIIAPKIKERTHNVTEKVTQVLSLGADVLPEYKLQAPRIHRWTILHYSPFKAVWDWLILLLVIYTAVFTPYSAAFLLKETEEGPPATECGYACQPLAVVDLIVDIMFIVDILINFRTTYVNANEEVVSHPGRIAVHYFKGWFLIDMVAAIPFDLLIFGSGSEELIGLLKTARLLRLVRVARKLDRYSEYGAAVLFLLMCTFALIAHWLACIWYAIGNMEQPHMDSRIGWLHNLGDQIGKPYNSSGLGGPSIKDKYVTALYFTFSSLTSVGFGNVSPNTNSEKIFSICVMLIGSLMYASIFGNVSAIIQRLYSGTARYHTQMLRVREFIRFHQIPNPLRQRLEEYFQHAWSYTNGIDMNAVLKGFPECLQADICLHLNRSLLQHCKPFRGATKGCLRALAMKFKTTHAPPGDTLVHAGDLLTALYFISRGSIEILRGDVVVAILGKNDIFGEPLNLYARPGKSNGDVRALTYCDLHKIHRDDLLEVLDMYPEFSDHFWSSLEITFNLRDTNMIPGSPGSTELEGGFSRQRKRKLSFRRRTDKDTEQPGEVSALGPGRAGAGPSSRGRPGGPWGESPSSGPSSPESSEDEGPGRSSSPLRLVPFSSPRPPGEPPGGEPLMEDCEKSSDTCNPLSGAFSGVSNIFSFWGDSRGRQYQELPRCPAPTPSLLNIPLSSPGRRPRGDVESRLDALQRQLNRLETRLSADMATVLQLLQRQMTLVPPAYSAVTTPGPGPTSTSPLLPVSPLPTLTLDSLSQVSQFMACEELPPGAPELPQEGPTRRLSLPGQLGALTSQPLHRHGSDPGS
row,Structure (SMILES),"hERG current change (%, negative = inhibition) at 1uM [%]"
1,CCOC(=O)COc1ccc(C2CC(C)=NN2c2ccccc2)cc1 (centres unmarked),8.65
2,COc1cc(/C=N/O)ccc1Oc1cnccn1,13
3,CCc1nnc(NC(=O)CCC(=O)N2CCN(Cc3cc(Cl)ccc3OC)CC2)s1,15.4
4,O=S1(=O)CCN2C(=N1)SC1=C2CCN(Cc2ccccc2)C1,13.2
5,Cl.N=c1n(CCCOc2ccc(Br)cc2)c2ccccc2n1CC(N)=O,6.86
6,Cc1ccc(C)c(S(=O)(=O)N2CCN(c3nc(CN4CCOCC4)nc4sc(C)c(C)c34)CC2)c1,-7.69
7,CCCc1nn2c(=O)cc(CSCC(=O)Nc3cccc(C)c3)nc2s1,11.5
8,CC1CC(C)CN(C(=O)c2cn(C)c3ccc(S(=O)(=O)N(C)C)cc3c2=O)C1 (centres unmarked),6.66
9,Cn1c(C=O)c(-c2ccc3c(c2)OCCO3)c2ccccc21,13.4
10,Cc1cc(NC(=O)CSc2nnc(NC(=O)C3CC(=O)N(c4ccccc4)C3)s2)no1 (centres unmarked),5.28
11,CC(NC(=O)C1CCN(S(=O)(=O)c2cnc[nH]2)CC1)c1ccccc1 (centres unmarked),5.83
12,CCC(=Nc1ccc(N)cc1)C1=C(O)C(C(=O)OC)C(C)(C)CC1=O (centres unmarked),23.8
13,COc1ccc(C2=NOC(C(=O)Nc3cc(Br)ccc3O)C2)cc1OC (centres unmarked),18.7
14,COc1cccc2cc(C(=O)C3=C(O)C(=O)N(CCN(C)C)C3c3ccc(Cl)cc3)oc12 (centres unmarked),6.72
15,O=C(NCCc1ccccc1)C(=O)c1c[nH]c2ccccc12,8.35
16,COc1ccccc1-c1c(C(F)(F)F)oc2cc(OC(=O)c3ccc([N+](=O)[O-])cc3)ccc2c1=O,12.8
17,CN(C)c1ccc(N=Cc2nc(-c3ccccc3)oc2OC(=O)c2cccc(Cl)c2)cc1,18.1
18,CCCC[N+]1(C)[C@@H]2CC(OC(=O)[C@H](CO)c3ccccc3)C[C@H]1[C@@H]1O[C@@H]12.[Br-] (some centres unmarked),7.66
19,CCOC(=O)C(NCCOC)(NC(C)=O)C(F)(F)F (centres unmarked),9.23
20,Cc1ccc(NC(=O)CN(C)S(=O)(=O)c2cccc3cccnc23)c(C)c1,10.3
21,CCCn1c(OC)nc2c1c(=O)n(C)c(=O)n2C,6.95
22,O=C(CS(=O)(=O)c1ccccc1)NC1CCCCC1,11.1

row,Structure (SMILES),"hERG current change (%, negative = inhibition) at 1uM [%]"
1,CC(=O)c1sc(NC(=O)CSCc2c(C)noc2C)nc1-c1ccccc1,7.09
2,COc1ccccc1-n1c(C)nc2cc(C(=O)NCCN3CCOCC3)ccc21,15.3
3,O=C(NCCN1CCOCC1)c1ccc2c(c1)ncn2C1CCCC1,-1.57
4,CCc1ccc(-c2ccc3nnc(SCC(N)=O)n3n2)cc1,22.5
5,Cc1nc2nc(-c3ccccc3)[nH]n2c(=O)c1Cc1ccccc1,5.86
6,CCOc1ccccc1CN1CCN(CCCn2cccn2)CC1CCO (centres unmarked),-28.6
7,Cn1c(CNC(=O)OC(C)(C)C)nnc1SCc1c(Cl)cccc1Cl,13.5
8,COc1ccc(CN2CCN(CC(=O)Nc3ccccc3C(=O)NC3CC3)CC2)cc1F,-99.6
9,Cc1cc(C)cc(N(CCC#N)C(=O)CSC2=Nc3ccccc3C3CC=NN23)c1 (centres unmarked),9.85
10,CCCNC(=O)c1ccc(N2CCC3(CC2)CC(c2cccc(Br)c2)=NO3)c(NC(=O)c2ccccc2)c1,7.25
11,O=C(Nc1nc(-c2ccccc2)cs1)c1cccc(S(=O)(=O)N2CCN(Cc3ccccc3)CC2)c1,11.7
12,CC(C)N(Cc1ccccc1)C(=S)Nc1ccc(OC(F)F)cc1,1.45
13,CC(=O)Nc1nnc(C)s1,7.59
14,CC1(c2ccccc2)NC(=O)N(CC(=O)N2CCN(S(=O)(=O)c3cccc([N+](=O)[O-])c3)CC2)C1=O (centres unmarked),10.9
15,O=S(=O)(c1ccc(-c2cnc(C3CC3)o2)cc1)N1CCN(c2ccccc2)CC1,13.4
16,CCCC(NCC(O)COc1ccc(-c2ccccc2)cc1)c1ccccc1 (centres unmarked),10.3
17,CC(C)COC(=O)c1ccc(NC(=O)C2C3C=CC(C3)C2C(=O)O)cc1 (centres unmarked),-0.843
18,O=C(Nc1ccccc1)N1C(=O)C2(OCCO2)c2ccccc21,18.3
19,COc1ccc(OC)c(-c2cc(C(=O)N/N=C/c3ccc(F)cc3)c3ccccc3n2)c1,12.3
20,CC(C)(C)C(=O)Nc1ccc(-c2nnc3n2CCCCC3)cc1,17.7
21,Cc1nn(CC(=O)N(C)C2(C#N)CCCCC2)c(C)c1[N+](=O)[O-],3.7
22,O=C(COC(=O)c1ccccn1)Nc1ccccc1OC(F)F,12.3

row,Structure (SMILES),"hERG current change (%, negative = inhibition) at 1uM [%]"
1,COc1cc([N+](=O)[O-])ccc1-c1ccc(/C=N\n2cnnc2)o1,13.2
2,CC(=O)Nc1ccc(S(=O)(=O)N2CCN(S(=O)(=O)N3CCOCC3)CC2)cc1,5
3,CS(=O)(=O)N(CC(=O)Nc1cccc(F)c1)c1cccc([N+](=O)[O-])c1,3.13
4,C=C1CCC[C@]2(C)C[C@H]3OC(=O)C(CNC(C)(CO)CO)[C@H]3CC12 (some centres unmarked),10.2
5,O=C(c1ccccc1)c1ccc(N2CCCC2)cc1,-0.0505
6,C#CCNc1nc(C)nc2c1nnn2Cc1ccccc1F,9.4
7,COC(=O)C1=C(C)N=C2SC(C)C(=O)N2C1c1ccc(C(=O)OC)cc1 (centres unmarked),11.5
8,Cn1ncc(C#N)c1NC(=O)C1CC(c2ccc(Cl)c(Cl)c2)=NO1 (centres unmarked),5.83
9,O=S(=O)(NCC(c1ccc2c(c1)OCO2)N1CCOCC1)c1ccccc1 (centres unmarked),5.68
10,O=C(COc1ccc(Cl)cc1)NCCCNC(=O)c1cccnc1,26.4
11,COc1ccc(Cl)cc1NC(=O)c1cc(-c2ccco2)on1,13
12,COc1ccc(-c2ccc(=O)n(CC(=O)Nc3nnc(C(C)C)s3)n2)cc1OC,8.77
13,COC(=O)CCCCCCCCC(O)C[N+]1(C)CCOCC1.[I-] (centres unmarked),11.3
14,CCCCSc1nc2c(c(=O)[nH]1)CCC2,13.3
15,COc1cccc2cc(C(=O)n3ccc(C)n3)c(=O)oc12,10.3
16,O=C(O)CSc1nnc(-c2ccc(Cl)cc2Cl)n1-c1ccc(Br)cc1,4.92
17,COc1cc(OC)cc(C(=O)O/N=C(\N)c2ccccn2)c1,11.5
18,CC(C)(C)OC(=O)NN1CC(=O)N2Cc3ccccc3C[C@@H]2C1=O,15
19,Cc1cc(C)n(CCC(=O)N=Nc2c(O)[nH]c3ccc(Br)cc23)n1,9.71
20,Cc1nc2ccc(S(=O)(=O)N(C)CC(=O)NC(C)c3ccccc3)cc2s1 (centres unmarked),14.3
21,CCCOc1ccc(/C=C/C(=O)NCc2ccccc2)cc1,2.18
22,CCc1nc2ccc(C(=O)N3CCN(c4cccc(C)c4C)CC3)cc2nc1CC,13

row,Structure (SMILES),"hERG current change (%, negative = inhibition) at 1uM [%]"
1,CCNC(=O)CNC(=O)c1nn(Cc2ccccc2)c(=O)c2ccccc12,9.51
2,CN(C)S(=O)(=O)c1ccc(C(=O)NCCS(=O)(=O)N2CCN(c3ccc(F)cc3)CC2)cc1,12.4
3,Cc1ccc(-n2c(C)cc(/C=c3/sc4nc5ccccc5n4c3=O)c2C)cc1,9.79
4,CC(C)c1ccc(OCc2ccc(C(=O)N(C)C)o2)cc1,9.46
5,C=CCSc1nc(C)c(CC(=O)OCCCC)c(=O)[nH]1,10.8
6,COCCn1c(SCC(=O)NC(=O)NC(C)(C)C)nc2ccccc21,-7.15
7,CCN(CC)c1ccc(C2C(C(C)=O)C(=O)CC(C)(O)C2C(C)=O)cc1 (centres unmarked),-8.92
8,O=C(COC(=O)c1ccc(F)c(S(=O)(=O)N2CCOCC2)c1)NCc1ccco1,8.06
9,O=C1/C(=C/c2ccncc2)CCc2ccccc21,4.3
10,Cc1ccc(C)c(OCC(O)CN2CCC(C)CC2)c1C (centres unmarked),0.216
11,O=C(COC(=O)c1cc2c(s1)CCCC2)Nc1ccc(Cl)cn1,2.34
12,CCc1nn2c(N3CCOCC3)cc(C)nc2c1-c1ccccc1,10.2
13,CC(=O)Nc1ccc(S(=O)(=O)Nc2cccc(-c3ccc4nncn4n3)c2)cc1,6.09
14,O=C(Nc1ccc2c(c1)OCO2)C1CCCN1C(=O)NCc1ccccc1 (centres unmarked),9.42
15,O=S(=O)(Nc1cc2nc3ccccc3nc2n1Cc1ccccc1)c1ccc(Cl)cc1,16.1
16,Cc1cccc(NC(=O)CN2C(=O)S/C(=C\c3ccccn3)C2=O)c1,9.73
17,CCCOc1ccc(C2C(C(=O)/C=C/c3ccco3)=C(O)C(=O)N2CCN2CCOCC2)cc1OC (centres unmarked),7.02
18,CCOc1ccc(C(=O)NCC(=O)OCC(=O)c2ccc3c(c2)-c2ccccc2C3)cc1,24.3
19,Cc1ccc(OCC(=O)O/N=C(\N)Cc2ccc(Cl)cc2)cc1,10.7
20,Cc1cccc2sc(NC(=O)c3ccc(OCC4CCCO4)cc3)nc12 (centres unmarked),14.7
